Measurements published in the BET-seq Pho4 binding data (Le et al. 2018).
Some of the results follow. The energies were worked out here from pooled read counts, against the library average; single values are noisy.

biological target: T1, Pho4 (S. cerevisiae) (UniProt P07270); assay: relative binding free energy (BET-seq); higher = weaker binding; details: reference: library average
T1 sequence: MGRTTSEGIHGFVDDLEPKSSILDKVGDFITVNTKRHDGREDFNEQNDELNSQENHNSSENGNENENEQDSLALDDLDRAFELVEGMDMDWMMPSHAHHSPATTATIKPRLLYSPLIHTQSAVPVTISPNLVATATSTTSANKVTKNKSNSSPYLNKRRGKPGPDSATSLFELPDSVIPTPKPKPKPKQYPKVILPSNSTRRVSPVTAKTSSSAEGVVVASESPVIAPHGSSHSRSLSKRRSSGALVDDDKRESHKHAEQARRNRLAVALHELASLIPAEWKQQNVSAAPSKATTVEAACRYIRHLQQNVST

Sequence | relative binding free energy [kcal/mol]
ACTGGCACGTGAGGAA | 0.19
TTGGTCACGTGCTTGT | 0.08
GTTCGCACGTGTGAGT | 0.02
TTTGGCACGTGATAAA | -0.12
TAGTACACGTGGCGTG | -0.08
TCGTACACGTGTGTGA | 0.03
AAGGGCACGTGGATTG | -0.17
TTCTTCACGTGGGGTG | 0.1
GGGGGCACGTGGGTCT | -0.11
GGTGACACGTGGATTG | 0.15
TGCGTCACGTGATAGG | 0.16
AATTTCACGTGGGTAA | 0.2
AGTGTCACGTGAGATA | 0.24
TTTTACACGTGGTAAA | 0.01
GCTTGCACGTGGGATT | -0.17
GTACGCACGTGGTATA | -0.06
AGTCACACGTGTAGTT | -0.01
GAGTGCACGTGGTGAG | 0.05
AGTAACACGTGGCGGG | -0.02
GCGTTCACGTGGTGCA | 0.3
ATTATCACGTGTTGGA | 0.14
GTAAACACGTGTTGTT | 0.04
GTACGCACGTGGGAGG | -0.24

Sequence | relative binding free energy [kcal/mol]
GTTGGCACGTGAGTAT | 0.05
AATGCCACGTGGCGTG | -0.11
AAAGTCACGTGTGATG | 0.14
TGGGGCACGTGGACTA | -0.21
GGAGTCACGTGTTATA | 0.12
TGAAACACGTGTTTTG | 0
ATTCACACGTGTAGGG | 0.11
TGTTTCACGTGGCTGT | 0.14
AGTGGCACGTGACTGT | -0.05
GTCTGCACGTGTCGGG | 0.11
TGGGACACGTGCGAGT | 0.02
GTGATCACGTGAAGGC | 0.3
GTTTGCACGTGCTTGC | 0.05
GTTTTCACGTGAGCGA | 0.42
GGCGACACGTGGGGTC | -0.18
TTATCCACGTGTTGTT | 0.04
GGGATCACGTGTGTTT | 0.29
GTGGTCACGTGTTGTC | 0.12
GATATCACGTGGTGCT | 0.15
GTATGCACGTGGAGTC | -0.03
ATTCTCACGTGTGTAG | 0.03
GTGTCCACGTGTGTAG | 0.05
CGTATCACGTGCAGGG | 0.1

Sequence | relative binding free energy [kcal/mol]
TCGCTCACGTGGTGGG | 0.23
ATTTGCACGTGTGTAA | 0
TTCGGCACGTGCTTAG | -0.09
CTGTTCACGTGTATGT | 0.24
GTATTCACGTGAGGAT | 0.24
CCGGTCACGTGGTTGT | 0.22
ATGGGCACGTGGTGGA | -0.17
TTGGGCACGTGACGAA | 0.11
AGATTCACGTGTTGCG | 0.28
TAATACACGTGGTAGT | -0.02
CAATTCACGTGAGGTT | 0.29
CGAGGCACGTGAATTT | 0.36
TTGGTCACGTGGATAT | 0.09
ATTAGCACGTGGGAGA | -0.18
TTGGGCACGTGTTAGT | -0.01
GTGTCCACGTGTGTGT | 0.08
TTTCTCACGTGAAAGG | 0.43
TGGTGCACGTGCGAGT | -0.07
TCTGGCACGTGTGGAT | 0.14
ATTTGCACGTGAAGGT | 0.29
GGTATCACGTGTCGCG | 0.19
TACAGCACGTGTTAGT | -0.05
GGTCGCACGTGGAATT | 0.19

Sequence | relative binding free energy [kcal/mol]
CTGGGCACGTGGTGAA | -0.25
TAATACACGTGTCGTA | 0.1
TTATACACGTGGAAGG | 0.11
CGTCACACGTGGGGTG | -0.06
CGGGTCACGTGAGCTG | 0.25
AGATTCACGTGTAGTG | 0.16
TTGCTCACGTGGGAGG | 0.2
AAAAGCACGTGTAGTG | -0.02
GGAGCCACGTGATCGG | 0.24
AACTTCACGTGTGAGG | 0.32
GGTTGCACGTGGCTTT | -0.02
GGAGTCACGTGTGCTT | 0.03
GGATACACGTGGTACG | 0.08
TAACGCACGTGGTTGT | -0.1
AGGTGCACGTGTCGTA | -0.06
CTAGGCACGTGTTAGT | -0.27
TGCATCACGTGAGTTT | 0.09
GGCGTCACGTGTGTGG | 0.18
CGGTGCACGTGTAGAA | 0.06
TATGGCACGTGTATCG | 0.02
GGGGTCACGTGCTAGT | 0
ATGTTCACGTGTGTAA | 0.29
ATAGGCACGTGGGCTT | -0.16

Sequence | relative binding free energy [kcal/mol]
TTAGGCACGTGGGACT | -0.29
GTATGCACGTGAGGGT | 0.28
AGGGTCACGTGAGGAG | 0.21
CTGCTCACGTGTGTAG | 0.2
AGTTGCACGTGTCATG | 0.02
AAAGTCACGTGGGGAT | 0.08
TAGATCACGTGGGCAA | 0.29
ATATTCACGTGAGCTT | 0.25
GGCGGCACGTGATTTG | 0.17
GACATCACGTGGGTGG | -0.07
GGTGCCACGTGAGGAG | 0.19
TTAGCCACGTGTTCGG | -0.1
TGAGGCACGTGGATTG | 0.04
CCGAGCACGTGGTGGG | -0.22
TGTGCCACGTGGAGGC | -0.09
TGAGACACGTGGCAGT | 0.01
GATTGCACGTGCGTGA | 0.03
ACGGTCACGTGTTGTA | 0.01
GCGTACACGTGGGGGG | -0.01
ATGGACACGTGTTATC | 0.15
CCGTACACGTGGTGTG | -0.01
TTGTTCACGTGTGGCT | 0.4
TGCATCACGTGTGTGC | 0.17
